Experimental data: the supplement of paper PMC11876631
± gives the standard deviation of the averaged measurements. Laboratory Escherichia coli strains with one amino-acid change in an essential protein, pooled on minimal glucose agar with carbenicillin or gentamicin at twice the control MIC (plus kanamycin and chloramphenicol for the plasmids), 48 h. Fold change of barcode share against drug-free plates; higher = less susceptible. Active = above 20 in both replicates (the paper's putatively resistant). '<' = one read or none on drug, '>' = one read or none on a drug-free plate. Shares are relative, so most strains fall below 1 when a few take over. Listed are strains with at least 15 reads on both drug-free plates, and hits; most hits rest on fewer reference reads. Replicate rank correlation about 0.5. Edits are read from barcodes.

B1: trpB M149A (protein)
chain: MTTLLNPYFGEFGGMYVPQILMPALRQLEEAFVSAQKDPEFQAQFNDLLKNYAGRPTALTKCQNITAGTNTTLYLKREDLLHGGAHKTNQVLGQALLAKRMGKTEIIAETGAGQHGVASALASALLGLKCRIYMGAKDVERQSPNVFRARLMGAEVIPVHSGSATLKDACNEALRDWSGSYETAHYMLGTAAGPHPYPTIVREFQRMIGEETKAQILEREGRLPDAVIACVGGGSNAIGMFADFINETNVGLIGVEPGGHGIETGEHGAPLKHGRVGIYFGMKAPMMQTEDGQIEESYSISAGLDFPSVGPQHAYLNSTGRADYVSITDDEALEAFKTLCLHEGIIPALESSHALAHALKMMRENPDKEQLLVVNLSGRGDKDIFTVHDILKARGEI
B2: trpB M149W (protein)
chain: MTTLLNPYFGEFGGMYVPQILMPALRQLEEAFVSAQKDPEFQAQFNDLLKNYAGRPTALTKCQNITAGTNTTLYLKREDLLHGGAHKTNQVLGQALLAKRMGKTEIIAETGAGQHGVASALASALLGLKCRIYMGAKDVERQSPNVFRWRLMGAEVIPVHSGSATLKDACNEALRDWSGSYETAHYMLGTAAGPHPYPTIVREFQRMIGEETKAQILEREGRLPDAVIACVGGGSNAIGMFADFINETNVGLIGVEPGGHGIETGEHGAPLKHGRVGIYFGMKAPMMQTEDGQIEESYSISAGLDFPSVGPQHAYLNSTGRADYVSITDDEALEAFKTLCLHEGIIPALESSHALAHALKMMRENPDKEQLLVVNLSGRGDKDIFTVHDILKARGEI
B3: trpB M149Q (protein)
chain: MTTLLNPYFGEFGGMYVPQILMPALRQLEEAFVSAQKDPEFQAQFNDLLKNYAGRPTALTKCQNITAGTNTTLYLKREDLLHGGAHKTNQVLGQALLAKRMGKTEIIAETGAGQHGVASALASALLGLKCRIYMGAKDVERQSPNVFRQRLMGAEVIPVHSGSATLKDACNEALRDWSGSYETAHYMLGTAAGPHPYPTIVREFQRMIGEETKAQILEREGRLPDAVIACVGGGSNAIGMFADFINETNVGLIGVEPGGHGIETGEHGAPLKHGRVGIYFGMKAPMMQTEDGQIEESYSISAGLDFPSVGPQHAYLNSTGRADYVSITDDEALEAFKTLCLHEGIIPALESSHALAHALKMMRENPDKEQLLVVNLSGRGDKDIFTVHDILKARGEI
B4: trpB M149D (protein)
chain: MTTLLNPYFGEFGGMYVPQILMPALRQLEEAFVSAQKDPEFQAQFNDLLKNYAGRPTALTKCQNITAGTNTTLYLKREDLLHGGAHKTNQVLGQALLAKRMGKTEIIAETGAGQHGVASALASALLGLKCRIYMGAKDVERQSPNVFRDRLMGAEVIPVHSGSATLKDACNEALRDWSGSYETAHYMLGTAAGPHPYPTIVREFQRMIGEETKAQILEREGRLPDAVIACVGGGSNAIGMFADFINETNVGLIGVEPGGHGIETGEHGAPLKHGRVGIYFGMKAPMMQTEDGQIEESYSISAGLDFPSVGPQHAYLNSTGRADYVSITDDEALEAFKTLCLHEGIIPALESSHALAHALKMMRENPDKEQLLVVNLSGRGDKDIFTVHDILKARGEI
B5: trpB M149P (protein)
chain: MTTLLNPYFGEFGGMYVPQILMPALRQLEEAFVSAQKDPEFQAQFNDLLKNYAGRPTALTKCQNITAGTNTTLYLKREDLLHGGAHKTNQVLGQALLAKRMGKTEIIAETGAGQHGVASALASALLGLKCRIYMGAKDVERQSPNVFRPRLMGAEVIPVHSGSATLKDACNEALRDWSGSYETAHYMLGTAAGPHPYPTIVREFQRMIGEETKAQILEREGRLPDAVIACVGGGSNAIGMFADFINETNVGLIGVEPGGHGIETGEHGAPLKHGRVGIYFGMKAPMMQTEDGQIEESYSISAGLDFPSVGPQHAYLNSTGRADYVSITDDEALEAFKTLCLHEGIIPALESSHALAHALKMMRENPDKEQLLVVNLSGRGDKDIFTVHDILKARGEI
B6: trpB L188A (protein)
chain: MTTLLNPYFGEFGGMYVPQILMPALRQLEEAFVSAQKDPEFQAQFNDLLKNYAGRPTALTKCQNITAGTNTTLYLKREDLLHGGAHKTNQVLGQALLAKRMGKTEIIAETGAGQHGVASALASALLGLKCRIYMGAKDVERQSPNVFRMRLMGAEVIPVHSGSATLKDACNEALRDWSGSYETAHYMAGTAAGPHPYPTIVREFQRMIGEETKAQILEREGRLPDAVIACVGGGSNAIGMFADFINETNVGLIGVEPGGHGIETGEHGAPLKHGRVGIYFGMKAPMMQTEDGQIEESYSISAGLDFPSVGPQHAYLNSTGRADYVSITDDEALEAFKTLCLHEGIIPALESSHALAHALKMMRENPDKEQLLVVNLSGRGDKDIFTVHDILKARGEI
B7: can L149A (protein)
chain: MKDIDTLISNNALWSKMLVEEDPGFFEKLAQAQKPRFLWIGCSDSRVPAERLTGLEPGELFVHRNVANLVIHTDLNCLSVVQYAVDVLEVEHIIICGHYGCGGVQAAVENPELGLINNWLLHIRDIWFKHSSLLGEMPQERRLDTLCEANVMEQVYNLGHSTIMQSAWKRGQKVTIHGWAYGIHDGLLRDLDVTATNRETLEQRYRHGISNLKLKHANHK

Target: Escherichia coli (laboratory strain)
Test: barcode share on antibiotic plates over drug-free plates; higher = less susceptible
Protocol: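 A pool of E. coli strains, each edited to carry one amino-acid change in an essential protein, was grown for 48 h on minimal glucose agar with or without antibiotic; strain barcodes were sequenced; mean of two replicates.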

[1] = antibiotic: carbenicillin, 2× MIC (3.1 µg/mL)
[2] = antibiotic: gentamicin, 2× MIC (MIC 0.45 µg/mL)

| Protein | fold change of barcode share [1] | fold change of barcode share [2] |
| --- | --- | --- |
| B1 | 1.08 ± 0.89 | 0.00978 ± 0.0056 |
| B2 | 0.53 ± 0.11 | 0.0239 ± 0.015 |
| B3 | 0.562 ± 0.069 | 0.037 ± 0.0058 |
| B4 | 0.65 ± 0.12 |  |
| B5 | 0.843 ± 0.056 | 0.0409 ± 0.027 |
| B6 | 0.347 ± 0.12 | 0.0113 ± 0.0043 |
| B7 | 0.434 ± 0.053 | 0.0108 ± 0.0084 |
